The whole screen tested about 310,000 compounds, of which about 2,200 (0.71%) showed an effect of 50% or more. The effect is printed as a negative number. The list shows a part of the results.

Sequence of human ether-à-go-go-related gene (hERG) potassium channel (Q12809 whole entry, looked up): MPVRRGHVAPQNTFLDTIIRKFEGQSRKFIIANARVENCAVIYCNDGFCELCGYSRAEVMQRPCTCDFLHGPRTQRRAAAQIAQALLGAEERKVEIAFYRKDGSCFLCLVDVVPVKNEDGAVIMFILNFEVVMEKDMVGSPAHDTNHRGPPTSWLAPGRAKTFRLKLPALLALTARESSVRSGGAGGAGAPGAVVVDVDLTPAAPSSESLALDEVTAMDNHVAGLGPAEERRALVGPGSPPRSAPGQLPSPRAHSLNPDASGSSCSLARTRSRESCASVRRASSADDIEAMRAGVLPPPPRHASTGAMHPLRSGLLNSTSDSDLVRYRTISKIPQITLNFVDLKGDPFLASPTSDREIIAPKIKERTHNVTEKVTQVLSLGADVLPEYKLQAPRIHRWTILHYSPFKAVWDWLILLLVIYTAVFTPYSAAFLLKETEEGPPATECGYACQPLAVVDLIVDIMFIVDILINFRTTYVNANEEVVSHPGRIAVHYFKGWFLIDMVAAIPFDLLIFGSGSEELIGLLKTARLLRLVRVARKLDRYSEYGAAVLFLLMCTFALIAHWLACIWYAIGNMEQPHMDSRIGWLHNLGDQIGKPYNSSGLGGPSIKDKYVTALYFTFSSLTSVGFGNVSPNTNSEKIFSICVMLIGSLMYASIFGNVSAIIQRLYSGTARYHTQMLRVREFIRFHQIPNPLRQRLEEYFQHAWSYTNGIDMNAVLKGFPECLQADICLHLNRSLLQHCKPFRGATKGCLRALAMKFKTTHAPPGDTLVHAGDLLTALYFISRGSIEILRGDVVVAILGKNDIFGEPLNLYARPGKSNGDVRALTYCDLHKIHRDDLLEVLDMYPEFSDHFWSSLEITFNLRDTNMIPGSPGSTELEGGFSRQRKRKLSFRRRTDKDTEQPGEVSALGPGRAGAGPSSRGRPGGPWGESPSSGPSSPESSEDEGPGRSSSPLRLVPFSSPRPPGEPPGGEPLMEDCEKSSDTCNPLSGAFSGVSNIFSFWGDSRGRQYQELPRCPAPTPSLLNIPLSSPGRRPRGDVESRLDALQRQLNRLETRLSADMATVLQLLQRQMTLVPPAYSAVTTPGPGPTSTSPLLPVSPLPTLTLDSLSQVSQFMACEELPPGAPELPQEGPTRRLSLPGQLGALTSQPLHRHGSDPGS

The assay addresses human ether-à-go-go-related gene (hERG) potassium channel (human, UniProt Q12809). As to the kind of experiment: primary screen, population patch clamp on CHO cells stably expressing hERG.
On to `COc1ccccc1NC(=O)CON=C(N)CC(=O)NC1CCCCC1`, for which the “hERG current change (%, negative = inhibition) at 1uM” value is 7.64%. With `CC(=O)N1CC(C)Sc2ccc(S(=O)(=O)NCCc3ccccc3)cc21` (stereo not shown) the figure was 9.12%. On to `O=C(COC(=O)c1ccccc1[N+](=O)[O-])Nc1cccnc1Cl`, for which the “hERG current change (%, negative = inhibition) at 1uM” value is listed as 16.3%. With `Cc1cccc(C)c1OCc1nnc2c3cnn(C)c3ncn12` the figure was 9.32%. With `O=C(/C=C/c1ccccc1Cl)Nc1ccncc1` the figure was 8.13%; with `Cc1cc(=O)[nH]c(SCC(=O)Nc2ccc(C(=O)O)cc2)n1`, 12.5%; with `CCCCNC(=S)NC(=O)c1ccc([N+](=O)[O-])cc1`, -5.53%. Take `CN(CC(=O)Nc1cccc(F)c1)C(=O)CN1c2cccc3cccc(c23)S1(=O)=O`: the “hERG current change (%, negative = inhibition) at 1uM” value is reported as 8.8%. With `O=C(CSc1ccccc1C(=O)O)c1ccc(Cl)cc1` the figure was 21.7%; with `CCOC(=O)c1cc2cc(-c3c(C(=O)OCC)oc4cc(O)cc(O)c4c3=O)ccc2o1`, 2.57%. With `CCOc1ccc(NC(=O)CSc2nc3ccccc3c(=O)n2Cc2cccs2)cc1` the figure was 6.68%. With `COc1ccc(CN2CCn3nc(C(=O)NC4CC4)cc3C2=O)cc1` the figure was 12.1%; with `CC(=O)c1cccc(NC(=O)N2CCC(C(=O)c3ccc(F)cc3)CC2)c1`, 3.08%.

`Cc1cccc(-n2c(-c3ccc([N+](=O)[O-])cc3)nc3ccccc3c2=O)c1`: the “hERG current change (%, negative = inhibition) at 1uM” value is 2.02%. On to `CCOC(=O)C1=C(C)NC2=C(C(=O)C(C(=O)OC)C(C)C2)C1c1ccc(OC)c(O)c1` (stereo not shown), for which the “hERG current change (%, negative = inhibition) at 1uM” value came to 14.9%. With `CCOc1ccccc1NS(=O)(=O)c1ccc2c(c1)NC(=O)CCS2` the figure was 11%; with `Cc1cc(C)c(S(=O)(=O)NCCc2ccncc2)c(C)c1`, 7.62%.

Take `COc1ccccc1NC(=O)Nc1ccncc1`: the “hERG current change (%, negative = inhibition) at 1uM” value is 18.4%. For `CC(C)c1csc(CN2CCCC(CCC(=O)NCc3ccccc3F)C2)n1` (stereo not shown) the value was 3.75%. With `CN(C)C1(CNC(=O)CC(NC(=O)c2ccccc2Cl)c2ccccc2)CCCCC1` (stereo not shown) the figure was 1.14%.

As for `O=C(Nc1cccc(NC(=O)C2C3CC4OC(=O)C2C4C3)c1)c1ccccc1` (stereo not shown), the “hERG current change (%, negative = inhibition) at 1uM” value is recorded as 13.3%. With `COc1ccc2c(c1)cc(C(=O)O)n2C`, the “hERG current change (%, negative = inhibition) at 1uM” value was -5.19%. Turning to `O=C(CCCN1C(=O)/C(=C/c2ccco2)SC1=S)Nc1ccccc1C(=O)O`, the “hERG current change (%, negative = inhibition) at 1uM” value is given as -1.06%. For `Cc1cc(C)nc(-n2ncc3c2CC(c2ccccc2)CC3=O)n1` (stereo not shown) the value was 0.845%; for `Cc1[nH][nH]c(=O)c1/C=N/N1CCOCC1`, 12.4%; for `C/C(=N\NC(=O)c1c(Cl)c(C)nn1C)c1cccc(NC(=O)c2cccc(F)c2)c1`, 14%. For `Cc1noc(NS(=O)(=O)c2ccc(N/C=C/C(=O)c3ccncc3)cc2)c1C` the value was -7.38%. With `O=C(c1cnccn1)N(c1ccccc1)C1(C(=O)NC2CCCC2)CCCCC1` the figure was 8.37%; with `C=CCn1c(SCC(=O)Nc2ccc(N3CCOCC3)cc2)nc2ccccc2c1=O`, 4.14%. With `COc1ccc(OC)c(/C=N/NC(=O)CSc2nnc(C)n2-c2ccccc2)c1`, the “hERG current change (%, negative = inhibition) at 1uM” value was 3.55%. Turning to `CCOc1ccc(S(=O)(=O)N2CCC(C(=O)NCc3ccncc3)CC2)cc1Cl`, the “hERG current change (%, negative = inhibition) at 1uM” value turned out to be 5.48%.

For the compound `Cc1ccc(C(=O)N(NC2=NS(=O)(=O)c3ccccc32)S(=O)(=O)c2ccc(C)cc2)cc1`, the “hERG current change (%, negative = inhibition) at 1uM” value is 6.87%. Consider `COc1cccc(C2N(c3ccc(Cl)c(Cl)c3)C(=O)C3CCCN32)c1OC` (stereo not shown), for which the “hERG current change (%, negative = inhibition) at 1uM” value came to 4.09%.

Consider `O=C(Nc1ccc(S(=O)(=O)Nc2nccs2)cc1)c1cc(-c2ccccc2)nc2ccccc12`, for which the “hERG current change (%, negative = inhibition) at 1uM” value is 13%. With `Cn1c(C(=O)N2CCN(c3cccc(C(F)(F)F)c3)CC2)cc2sccc21` the figure was 3.59%; with `O=C(COC(=O)c1cnccn1)c1ccc([N+](=O)[O-])cc1`, 7.66%; with `O=C1OC2CC3CC1CC(O)(C3)C2` (stereo not shown), 7.99%. With `O=C(O)CSc1cnc2ccccc2n1`, the “hERG current change (%, negative = inhibition) at 1uM” value is given as 1.35%. For `Cc1cccc(-n2c(O)c(C=NCCCN3CCOCC3)c3ccccc3c2=O)c1` the value was -7.46%. For `COc1ccc(C2CC(c3ccccc3)Nc3nc(NC(=O)c4cccs4)nn32)cc1` (stereo not shown) the value was 13.8%; for `C#CCNC(=O)C1=C[C@@H](C2CCCCC2)[C@H](CCCO)[C@@H](OCC)O1`, 9.95%; for `COc1ccc(Cl)c(NCCC(=O)O)c1`, 6.69%. As for `CC1(C)CC(=O)c2c(oc3ccc(NS(=O)(=O)c4ccc(C(=O)O)cc4)cc23)C1`, the “hERG current change (%, negative = inhibition) at 1uM” value is given as 13.2%.

The values are drawn from publication PMC4336329 (PLoS ONE, 2015).
